In PubChem BioAssay AID1508624 (National Center for Advancing Translational Sciences (NCATS), 2021):
In all, about 48,000 compounds went through this assay and about 120 (0.25%) were called active. Inconclusive results (about 4%) are left out. Calls come from the whole dose curve; as a rule, active = well fitted activation curve with a large enough effect; inconclusive = small, poorly fitted or top-dose-only effect, or another doubt; inactive = no such curve, though single readings can be large or run the other way. The list shows a part of the results.

Experiment: Primary qHTS for Identification of Small Molecule Activators of Huntingtin-Antisense Promoter Activity; note: nearly all actives have a fitted effect of over 55% in size
Details: HEK293 HTT-AS promoter firefly luciferase reporter, 24 h; series mostly up to 57.5 µM; activity change, positive = activation: at the top concentration
Outline: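 Firefly luciferase readout (Dual-Glo, 10 min RT) after 24 h, 37 °C compound exposure (final up to 57.5 uM) of HEK293 reporter cells cultured 24 h beforehand; PTC124 at 50 uM final as control inhibitor; activity scaled vehicle 0%, zero RLU -100%.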

Activity change, positive = activation, inactive:
CCOC(=O)COc1ccc([N+](=O)[O-])cc1-c1ccnc2cc(-c3ccc(C)cc3)nn12 -6.09%
COc1ccc(C(=O)N(c2ccc(OC)cc2)S(=O)(=O)c2ccc3c(c2)n(C)c(=O)n3C)cc1 -9.4%
COc1ccccc1C(=O)Nc1cccc(C(=O)OCc2cc(=O)n3nc(C)sc3n2)c1 -3.66%
O=C(c1cc2ccc3cccnc3c2[nH]1)N1CCN(c2ccc(Cl)cc2)CC1 -0.746%
Cc1c(Cl)cccc1NC(=O)Cn1nnc2sc3c(c2c1=O)CCCC3 -6.63%
O=C(O)C1(Cc2cccc(Nc3nccs3)n2)CCC(Oc2cccc(Cl)c2F)CC1 (centres undefined) -13.5%
O=C(Nc1cccc(Cl)c1Cl)c1cc(S(=O)(=O)NCCc2ccccc2)ccc1F -20.1%
O=C(CN1C(=O)C2(SCC(=O)N2c2ccccc2)c2ccccc21)NCc1ccccc1 (centres undefined) -8.41%
NC(=O)CSc1ncc2c(n1)-c1ccccc1N(Cc1ccc(Cl)cc1)S2(=O)=O -4%
CCCNC(=O)C(CC)n1nc(CC)n2c(cc3oc(C)cc32)c1=O (centres undefined) -27.6%
COc1cccc(C(=O)c2cn(CC(=O)NCCc3ccccc3)c3nc(C)ccc3c2=O)c1 -12.1%
CCOC(=O)N1CCc2c(sc3c2C(=O)NC(c2cc(OC)c(O)c(OC)c2)N3)C1 (centres undefined) 9.07%
CCCN(CCC)CCCNC(=O)Cn1cc2c(n1)-c1c(oc(C(=O)N3CCCC3)c1C)CC2 -11.4%
COc1cccc(NC(=O)Cn2c(=O)n(CCc3ccccc3)c(=O)c3c4c(sc32)CN(C(C)=O)CC4)c1 -29%
Cc1ccc(C(=O)c2oc3ccccc3c2NC(=O)COc2ccccc2Cl)cc1 -4.69%
CCOc1ccc(NC(=O)NCc2ccc3c(c2)CCN3C(C)=O)cc1 8.3%
CCOC(=O)c1cc2c(=O)n3ccccc3nc2n(CC2CCCO2)c1=NC(=O)c1ccc(OC)cc1OC (centres undefined) -3.75%
Cc1cc(C)n(-c2nc3ccccc3nc2N2CCN(c3cccc(C)c3C)CC2)n1 -3.28%
COc1cccc(CNC(=O)C2(c3cccs3)CCOCC2)c1 -8.29%
CCOC(=O)c1c(NC(=O)CSc2cn(CCNC(=O)c3ccccc3OC)c3ccccc23)sc2c1CCC2 -27.6%
CC(C)c1nc2n(n1)C1(CCCCC1)[C@@H]1CCCC[C@@H]1N2 -5.94%
CCOc1ccc(-n2c(CC)nc3c(cnn3-c3ccc(Cl)cc3)c2=O)cc1 -53%
N#CC1(c2ccc(NC(=O)c3cccnc3NCc3ccncc3)cc2)CCCC1 5.83%
COc1ccc(-c2nc3c4ccccc4n(CC(=O)N4CCN(c5ccc(F)cc5)CC4)c(=O)n3n2)cc1 -2.62%
COc1c(Cl)cc(C(=O)N(Cc2ccc(C)o2)C2CCS(=O)(=O)C2)cc1Cl (centres undefined) -23.1%
Cc1cccc(Cn2c(C)c(CNC3CCCCCC3)c(C(=O)O)c2C)c1 -21.7%
Cc1oc(-c2cccc(Cl)c2)nc1CN1CCCC(C(=O)N2CCN(c3ccc(F)cc3)CC2)C1 (centres undefined) -50.6%
O=C(Cn1c(=O)c2ccccc2n(CC(=O)Nc2ccc(F)cc2)c1=O)NCCc1ccccc1 -39.7%
COc1ccccc1N(CC(=O)Nc1ccc(C)c(Cl)c1)S(=O)(=O)c1ccc(C)cc1 -30.7%
CCOc1ccc(CC(=O)NC2CC(=O)N(c3ccc(C)c(C)c3)C2)cc1 (centres undefined) -15.5%
CC1(C)Cc2c(sc(NC(=S)NC(=O)c3ccccc3)c2C(=O)O)CO1 -34%
O=C(C1CCC1)N1CCCc2cc(S(=O)(=O)Nc3ccc(F)cc3)ccc21 -29.4%
C#CC(C)(CC)NC(=O)c1cc2c(n(-c3ccc(Cl)cc3)c1=O)CC(C)(C)CC2=O (centres undefined) -23.9%
COCCn1c(C)cc(O)c(C(c2ccc(C)cc2)N2CCCCC2)c1=O (centres undefined) 4.94%
CC(=O)N1CCc2cc(Br)cc(S(=O)(=O)N3CCN(c4cc(C)ccc4C)CC3)c21 -9.53%
CC(=O)N1c2ccccc2C(=O)C1N1CCN(c2cccc(C(F)(F)F)c2)CC1 (centres undefined) -35.5%
Cc1ccccc1OCC(=O)N(Cc1ccc(N(C)C)cc1)CC1CCCO1 (centres undefined) -24.8%
OCc1nc2ccccc2n1Cc1c(F)cccc1Cl -22.6%
Cn1cc(-c2cc3n(n2)CCC(=O)N3CC(=O)O)c2ccccc21 2.5%
Cc1cccc(CNC(=O)CCCN2C(=O)CCn3nc(-c4cn(C)c5ccccc45)cc32)c1 -22.7%
CCN(CC)c1ccc(NC(=O)c2cc(S(=O)(=O)N3CCc4ccccc43)cn2C)c(C)c1 -11.3%
CCN1CCN(c2c(S(=O)(=O)c3ccccc3)cnc3ccc(Cl)cc23)CC1 -9.43%
Cn1c(=O)n(C/C=C/c2ccccc2)c(=O)c2c1nc1n2CCN1c1ccc(Cl)cc1 -0.314%
COc1ccc(Cn2c(SCc3ccc(C(=O)NCCc4ccccc4)cc3)nc3cccnc32)cc1 -8.72%
CCN(CC)c1nn2c(=O)c(C(=O)NCc3cccc(C)c3)cnc2s1 -14.2%
Cn1nc(-c2ccccc2F)c2cc(C(=O)N3CCN(c4ccc(F)cc4)CC3)sc21 -77.8%
CCOC(=O)c1[nH]c(C)c(CCC(=O)NCc2ccccc2C)c1C -17.7%
CCn1cc(S(=O)(=O)c2ccc(C)cc2)c(=O)c2cc(F)c(N3CCCCCC3)cc21 -2.97%
Cc1ccc(NC(=O)CSc2ncnc3c2sc2ccccc23)cc1C 3.83%
Cc1nn(C(=O)c2cccc(F)c2)c(C)c1S(=O)(=O)N1CCCCCC1 -7.97%
CCC(C)NC(=O)Cn1c(=O)n(Cc2ccc(C(=O)NCc3ccccc3OC)cc2)c(=O)c2ccccc21 (centres undefined) -25.1%
Cc1cccc(N2CCN(S(=O)(=O)c3ccc(F)c(C(=O)Nc4ccc(C(C)C)cc4)c3)CC2)c1C -16.3%
Cc1ccc(C)c(NC(=O)CSc2nc(=O)n(Cc3ccccn3)c3c2CCC3)c1 -11%
NCCc1ccc(O)c(O)c1
COc1ccc(OC)c(Nc2ncnc3c2cnn3-c2ccc(C)cc2)c1 -2.81%
Cc1cc(C)cc(NS(=O)(=O)c2ccc3[nH]cc(C(=O)N4CCCCCC4)c(=O)c3c2)c1 -12.8%
COc1ccc(NC(=O)C(=O)NCCc2ccc(OC)c(OC)c2)c(OC)c1 12.6% [at 11.5 µM, percent change from vehicle, -100% = no light]
COc1ccccc1CNc1nc2ccccc2c2nc(-c3cccnc3)nn12 -3.84%
O=C(COc1ccccc1Cl)OCc1cc(=O)n2nc(C3CC3)sc2n1 -9.59%
